The campaign covered roughly 45,000 compounds. About 65 (0.1%) were called active. The call rests on the fitted dose curve; in most records, active means well fitted activation curve with a large enough effect; inconclusive means small, poorly fitted or top-dose-only effect; inactive means no such curve, though single readings can be large or run the other way. The list shows a part of the results.
Molecular target: Galactocerebrosidase (Homo sapiens) (UniProt P54803)
Experiment: A Novel Cell-Based Assay to Identify Small Molecules for B -Galactocerebrosidase; further: 0% is about no effect; nearly all actives have a fitted effect of over 65% in size
Conditions: 145M-Twi-hGALC-G270D cells (Twitcher mouse brain line with human GALC G270D), HMU-beta-Gal fluorescence, 48 h; series mostly up to 57.5 µM; activation: at the top concentration
Method in brief: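 Fluorescence readout: HMU-β-gal cleavage by mutant GALC (0.1 mM final, citrate/phosphate pH 5.2 with 1 mg/mL taurocholate), stopped with carbonate/bicarbonate plus Triton X-100. Cells: murine Twitcher 145M-Twi expressing human G270D GALC; qHTS for activators.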

Chain of UniProt P54803 (P54803 whole entry, looked up): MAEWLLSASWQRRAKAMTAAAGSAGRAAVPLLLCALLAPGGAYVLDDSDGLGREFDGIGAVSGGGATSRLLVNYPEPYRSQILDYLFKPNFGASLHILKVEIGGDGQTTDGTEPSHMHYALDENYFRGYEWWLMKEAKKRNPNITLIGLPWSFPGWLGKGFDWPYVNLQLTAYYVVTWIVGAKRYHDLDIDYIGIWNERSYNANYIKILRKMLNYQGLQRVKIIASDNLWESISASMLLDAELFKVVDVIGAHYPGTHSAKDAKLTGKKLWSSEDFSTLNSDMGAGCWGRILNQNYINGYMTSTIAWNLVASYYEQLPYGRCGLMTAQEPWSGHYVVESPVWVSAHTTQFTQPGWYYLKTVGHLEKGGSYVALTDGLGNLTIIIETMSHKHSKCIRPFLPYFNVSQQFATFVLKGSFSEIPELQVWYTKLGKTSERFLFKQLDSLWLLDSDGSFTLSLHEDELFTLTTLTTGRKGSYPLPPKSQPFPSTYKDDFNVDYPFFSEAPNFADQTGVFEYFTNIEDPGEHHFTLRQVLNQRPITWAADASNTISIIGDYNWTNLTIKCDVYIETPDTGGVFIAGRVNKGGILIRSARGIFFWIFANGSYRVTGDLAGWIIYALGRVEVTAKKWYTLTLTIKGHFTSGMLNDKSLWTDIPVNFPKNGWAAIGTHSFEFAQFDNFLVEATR

activation, inactive:
Cc1cc(C)cc(NC(=O)c2cc(S(=O)(=O)N3CCC(C)CC3)cn2C)c1 -8.98%
CC(=O)c1cccc(NC(=O)CCc2c(C)nc3c(c(C)nn3-c3ccccc3)c2C)c1 -14.7%
CCCCNc1nc(Oc2ccc(=O)n(C)n2)nc(N2CCOCC2)n1 -8.69%
COc1ccc(Br)cc1CNC(=O)c1ccc2c(c1)nc1n2CCC(C)C1 (stereo unspecified) -15.3%
O=C(Cn1ccn(-c2ccc(F)c(F)c2)c(=O)c1=O)NCCc1ccccc1 -6.47%
CCOc1ccc(-c2cc3c(=O)n(CC(=O)Nc4cc(F)ccc4C)ccn3n2)cc1 -23.1%
O=C(CCC1N=C2c3ccccc3N=C(SCc3cccc(Cl)c3)N2C1=O)N1CCN(c2ccccc2)CC1 (stereo unspecified) -17%
Cc1cc(C)c2c(=O)cc(C(=O)Nc3c(C)n(C)n(-c4ccccc4)c3=O)oc2c1 -27.5%
COc1ccc(C(=O)c2c(N)c(-c3nc(-c4ccc(OC)cc4)cs3)c3ccccn23)cc1 -15.9%
Cc1cc(C)c(/C=C/c2onc(C)c2S(=O)(=O)N2CCC(C(=O)NCc3ccccc3Cl)CC2)c(C)c1 -4.9%
COc1cc2[nH]c(=O)n(CCC(=O)N3CCN(c4ccc(Cl)cc4)CC3)c(=O)c2cc1OC -9.32%
CCn1nc(-c2ccccc2)c(-c2ccccc2)c(C(=O)Nc2ccccc2C#N)c1=O -6.66%
C=CCc1ccccc1OCc1nc2ccccc2n1CC -8%
CC(=O)N(O)CCCCCNC(=O)CCC(=O)N(O)CCCCCNC(=O)CCC(=O)N(O)CCCCCN -3.89%
Cc1ccc2oc3c(c(=O)c2c1)C(c1ccc([N+](=O)[O-])cc1)N(CCCN1CCOCC1)C3=O (stereo unspecified) -7.47%
CCN(Cc1ccccc1)C(=O)Cn1c(=O)n(-c2cccc(C)c2)c(=O)c2c1c1cc(C)ccc1n2C -7.02%
COc1ccc(S(=O)(=O)c2c(O)c3ccc(C(=O)NCc4ccc(Cl)cc4)cc3[nH]c2=O)cc1 -22.8%
CCOC(=O)C1CCN(C(=O)Cn2ncc3c4ccccc4n(Cc4ccc(F)cc4)c3c2=O)CC1 -10%
Cc1csc2nc(COc3ccc(NC(=O)COc4ccccc4)cc3)cc(=O)n12 17.1%
Cc1cc(NC(=O)CSc2ncc(C(=O)Nc3ccc(Cl)cc3)c(=O)n2C)no1 -23%
O=C(CN1C(=O)c2cccnc2Oc2ccc(Cl)cc21)NCCc1ccccc1 2.45%
O=C(O)Cc1cccc(-c2cc(CCCCCCc3ccc(O[C@H]4O[C@H](CO)[C@@H](O)[C@H](O)[C@@H]4O)c(-c4cccc(CC(=O)O)c4)c3)ccc2O[C@H]2O[C@H](CO)[C@@H](O)[C@H](O)[C@@H]2O)c1 -7.36% [at 0.46 µM]
CC(C)(C)C(=O)Cn1c(=O)n(-c2ccccc2)c(=O)c2c3c(sc21)CCC3 -10.6%
Cc1ccc(NC(=O)CN2C(=O)COc3ccc(S(=O)(=O)NC4CCCC4)cc32)cc1Cl -43.9%
CCOc1ccc(C(=O)Nc2cccc(NC(=O)c3ccc(C(C)(C)C)cc3)c2)cc1Br -13%
Cn1c2ccccc2c2cnn(CC(=O)N3CCN(c4cccc(C(F)(F)F)c4)CC3)c(=O)c21 -10.5%
Cc1cccc(N2CCN(S(=O)(=O)c3cc(Cl)ccc3Cl)CC2)c1C -16.8%
CC(=O)c1cccc(NC(=O)C2CCCN(C(=O)c3cnn(-c4ccccc4)c3-n3cccc3)C2)c1 (stereo unspecified) -7.53%
Cc1ccc(CNC(=O)CN(c2cccc(C)c2C)S(=O)(=O)c2ccccc2)cc1 -34.4%
CCC(CC)C(=O)Nc1ccc2nc(SCC(=O)N3CCc4ccccc43)sc2c1 -0.783%
CCCCNc1ccc(-c2nc(-c3ccco3)no2)cc1[N+](=O)[O-] -5.37%
COc1ccc(-c2nc(SCC(=O)Nc3ccc4c(c3)OCCO4)c(-c3ccc(F)cc3)[nH]2)cc1OC -10.2%
COc1ccc(CC(=O)NCc2ccc3c(c2)CCN3C(C)=O)cc1 -13.3%
O=C(c1ccc2c(c1)N(Cc1ccc(F)cc1)C(=O)c1ccccc1S2(=O)=O)N1CCN(Cc2ccccc2)CC1 -34.8%
Cc1ccc(-c2ccccc2C#N)cc1 -12.3%
CCc1ccccc1NC(=O)Nc1cc(C(=O)NCc2ccccc2OC)ccc1N1CCCC1 -10%
COc1ccc2c(c1)c(=O)c(S(=O)(=O)c1ccccc1)cn2CC(=O)Nc1ccc2c(c1)OCO2 -10.5%
CCCN(C(=O)Cn1ncc2c([nH]c3ccccc32)c1=O)c1ccc(F)cc1 7.3%
CC(=O)c1cccc(NC(=O)CCCSc2nc(-c3ccco3)cc(C(F)(F)F)n2)c1 -20.1%
COc1ccc(CCNC(=O)CCn2c(=O)c3ccccc3n(CC(=O)Nc3cc(Cl)ccc3C)c2=O)cc1OC -11.2%
CCOC(=O)C1CCCN(C(=O)c2ccc3c(c2)N(Cc2ccccc2F)C(=O)c2ccccc2S3=O)C1 (stereo unspecified) -9.04%
Cc1ccc(NC(=O)c2ccc(CNS(=O)(=O)c3ccc4c(c3)C(C)(C)C(=O)N4C)cc2)cc1 -31.8%
CN(C)CCNC(=O)C(=O)NCC(c1cccnc1)N1CCN(c2ccccc2)CC1 (stereo unspecified) -7.78%
COc1cccc(-c2nc(SCC(=O)NCC3CCCO3)c(-c3ccc(Cl)cc3)[nH]2)c1 (stereo unspecified) -13.5%
COc1ccc(NC(=O)CN2C(=O)C(c3ccc(C)cc3)=NC23CCCCCC3)cc1Cl -0.207%
CCOC(=O)C(C)(C)Oc1ccc(Cl)cc1 -38.1%
CC(=O)N1CCc2cc(S(=O)(=O)NC(Cc3ccccc3)C(=O)Nc3ccc(C)cc3C)ccc21 (stereo unspecified) -6.32%
O=C(CSc1nc2ccsc2c(=O)n1Cc1ccccc1F)NCc1ccccc1Cl 15.2%
Clc1cccc(-n2ncc3c(Nc4ccc5c(c4)OCCO5)ncnc32)c1 -17.4%
Cc1ccc(C)c(Cn2c(=O)n(-c3ccc(F)cc3)c(=O)c3sc4ccccc4c32)c1 -13.4%
COc1ccc(N2CCN(C(=O)Cn3c(-c4cccs4)cc4ccccc43)CC2)cc1 -5.19%
CCOC(=O)c1cnc2c(C)cc(C)cc2c1Nc1ccccc1OCC -16.7%
COc1ccc(C(=O)Nc2ccc3oc(-c4cc(Cl)ccc4Cl)nc3c2)cc1Br -7.6%
Cc1nn2c(-c3ccco3)ccnc2c1-c1ccc(Cl)cc1 -12.9%
Cc1ccc(C(=O)Nc2ccc3oc(-c4cc(Br)ccc4Cl)nc3c2)cc1 -15.8%
CCC(=O)N1CCCc2cc(S(=O)(=O)N3CCC(C(=O)Nc4cccc(Cl)c4)CC3)ccc21 -39.4%

Source: PubChem BioAssay AID1159614 (National Center for Advancing Translational Sciences (NCATS), 2016)
